# Test results: paper PMC4336329 (PLoS ONE, 2015)
# About 14,000 (4.5%) of roughly 310,000 compounds showed an effect of 50% or more. Effects have a minus sign here. The list shows a part of the results.
# Target: human ether-à-go-go-related gene (hERG) potassium channel (human, UniProt Q12809)
# Assay: primary screen, population patch clamp on CHO cells stably expressing hERG
# 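Note: peak tail current of the secondary pulse compared with the same well before compound.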
# Chain of human ether-à-go-go-related gene (hERG) potassium channel (Q12809 whole entry, looked up): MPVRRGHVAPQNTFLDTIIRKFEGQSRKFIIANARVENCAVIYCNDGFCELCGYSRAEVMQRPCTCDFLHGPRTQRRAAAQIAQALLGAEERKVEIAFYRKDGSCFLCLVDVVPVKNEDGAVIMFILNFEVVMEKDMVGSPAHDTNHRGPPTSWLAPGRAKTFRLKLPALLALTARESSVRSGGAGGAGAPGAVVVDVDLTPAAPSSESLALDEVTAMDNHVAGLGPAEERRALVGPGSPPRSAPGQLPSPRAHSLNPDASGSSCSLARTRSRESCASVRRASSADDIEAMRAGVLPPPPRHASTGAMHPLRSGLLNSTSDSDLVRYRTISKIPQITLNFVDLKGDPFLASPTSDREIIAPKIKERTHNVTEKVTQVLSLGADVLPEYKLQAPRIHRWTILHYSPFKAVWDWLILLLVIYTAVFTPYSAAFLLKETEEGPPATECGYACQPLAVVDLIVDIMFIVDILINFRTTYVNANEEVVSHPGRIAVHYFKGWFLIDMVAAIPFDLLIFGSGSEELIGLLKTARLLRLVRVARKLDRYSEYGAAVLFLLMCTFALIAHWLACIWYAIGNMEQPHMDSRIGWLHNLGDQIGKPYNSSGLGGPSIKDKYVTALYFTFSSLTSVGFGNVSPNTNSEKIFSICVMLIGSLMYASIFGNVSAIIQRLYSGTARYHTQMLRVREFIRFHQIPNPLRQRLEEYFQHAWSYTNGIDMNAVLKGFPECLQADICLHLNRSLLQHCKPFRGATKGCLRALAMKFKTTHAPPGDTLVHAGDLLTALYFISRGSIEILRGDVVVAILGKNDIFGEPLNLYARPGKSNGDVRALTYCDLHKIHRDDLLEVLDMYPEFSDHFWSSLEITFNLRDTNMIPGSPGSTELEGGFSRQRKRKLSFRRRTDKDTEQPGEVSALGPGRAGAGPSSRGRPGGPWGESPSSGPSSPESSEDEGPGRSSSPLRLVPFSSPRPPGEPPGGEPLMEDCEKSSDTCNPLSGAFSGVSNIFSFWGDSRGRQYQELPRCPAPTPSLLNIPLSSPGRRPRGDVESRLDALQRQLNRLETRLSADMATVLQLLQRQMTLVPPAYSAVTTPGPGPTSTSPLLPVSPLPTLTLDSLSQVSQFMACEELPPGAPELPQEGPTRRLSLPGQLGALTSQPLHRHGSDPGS
row,Compound,"hERG current change (%, negative = inhibition) at 10uM"
1,Cn1c(N)c(S(=O)(=O)N2CCN(Cc3ccccc3)CC2)c(=O)n(C)c1=O,4.53%
2,CCN(CC)CCNC(=O)C12CC3CC(CC(C3)C1)C2.Cl,-17.1%
3,CCN(CC(=O)Nc1c(F)cccc1F)C(=O)/C=C/c1ccc2ccccc2n1,-16.4%
4,COc1ccccc1C(=O)NC(=O)COC(=O)/C(=C/c1ccccc1)NC(C)=O,-35.7%
5,Cc1ccc(CN2CCN(C3CCOCC3)CC2CCO)cc1 (stereo not drawn),-36.5%
6,O=c1c2ccccc2nnn1Cc1ccc(F)cc1,1.33%
7,c1ccc(-c2csc3ncn4nnnc4c23)cc1,-20.9%
8,CC(C)(C)n1cnnc1Sc1ccc([N+](=O)[O-])cn1,-17.8%
9,COc1cccc2c(=O)n(CC(=O)NC3CCCC3)ccc12,6.52%
10,Cc1cccc(NC(=O)Nc2ccc(Br)cc2)n1,18.4%
11,Cn1c(CNc2ccccc2)nc2ccccc21,4.27%
12,O=C(O)/C=C/c1ccc2c(c1)OCCO2,-25%
13,O=c1oc2ccccc2cc1-c1nnc(-c2cccc(Br)c2)o1,-9.78%
14,CCSc1nc(-c2ccc(OC)cc2)cc(-c2ccccc2)c1C#N,5.37%
15,CCc1sc(C(=O)NCc2ccco2)cc1C,10.3%
16,CCOC(=O)Cc1nnc(NC(=O)CSc2ccccc2)s1,7.53%
17,CC1CCN(c2nnc(N3CCC(C)CC3)c3ccccc23)CC1,6.92%
18,CSc1nc(N)c(C(=O)NC2CCCCC2)s1,13%
19,CC(=O)NCC(=O)NC1CCCc2c1cnn2-c1ccc(C(C)(C)C)cc1 (stereo not drawn),-24.4%
20,Cc1nnc(NC(=O)CSc2nnc3ncccn23)s1,10.7%
21,O=C1c2ccccc2C(Nc2cccnc2)N1Cc1ccccc1 (stereo not drawn),-37.7%
22,c1ccc(C2=Nc3ccccc3OC2)cc1,4.25%
23,O=C(Cn1c(C(F)(F)F)nc2ccccc21)NCCCN1CCOCC1,8.96%

row,Compound,"hERG current change (%, negative = inhibition) at 10uM"
1,COc1ccc([C@@H]2[C@@H]3C(=O)N(C(C)(C)C)C(=O)[C@@H]3[C@]3(Cc4ccc(Cl)cc4)C(=O)N(c4ccc(OC)cc4)C(=O)N23)cc1,-10.2%
2,Cc1ccc2c(c1)nnn2C1CCN(S(=O)(=O)c2ccc3ccccc3c2)CC1,-3.19%
3,COc1ccc(NCc2nnc(SCC(=O)Nc3nc(-c4ccccc4)cs3)n2-c2ccccc2)cc1,13%
4,O=C(CSCc1cnn(-c2ccccc2)c1-n1cccc1)NCc1cccs1,-40.4%
5,CCOC(=O)c1c(C)[nH]c(C(=O)N/N=C/c2ccc(OC)c(OC)c2)c1C,12.7%
6,CCOc1ccc(C2C(C(=O)c3ccc(C)o3)=C(O)C(=O)N2CCN2CCOCC2)cc1OC (stereo not drawn),12.8%
7,NS(=O)(=O)c1ccc(CCn2c(=S)[nH]c3ccccc3c2=O)cc1,-5.32%
8,OC(COc1ccc(CN2CCSCC2)cc1)CN1CCCCC1 (stereo not drawn),8.52%
9,CCC(C)NC(=O)c1ccccc1-c1nc2ccccc2[nH]1 (stereo not drawn),-47.4%
10,CN(C)CCCn1c2c(c(SCC(=O)Nc3cccc4ccccc34)nc1=O)CCCC2,-45.6%
11,N#CC1=C(N)NC(SCc2ccc(Br)cc2)=C(C#N)C12CCCCC2,10%
12,Cc1onc(-c2ccccc2Cl)c1C(=O)Nc1ccc2c(c1)OCO2,10.3%
13,Cc1nn(C(C)(C)C)c(C)c1/C=N/OC(=O)Nc1ccc(Cl)c(Cl)c1,1.85%
14,O=C(C1=C(O)C(=O)N(CCN2CCOCC2)C1c1cccc(Br)c1)c1cc2ccccc2o1 (stereo not drawn),18.6%
15,Cc1[nH]c2ccccc2c1C(=O)C(C)OC(=O)c1ccc([N+](=O)[O-])o1 (stereo not drawn),-8.87%
16,Cc1ccn(C(=O)c2ccc(NC(=O)C3CCCCC3)cc2)n1,-6.3%
17,COc1ccc(-c2nnn(CCc3nn[nH]n3)n2)cc1OC,1.91%
18,O=C(Cn1nnc2c(cnn2-c2ccc(F)cc2)c1=O)c1ccccc1F,5.09%
19,CCOc1ccc(N(CC(=O)N/N=C/c2cc([N+](=O)[O-])ccc2Cl)S(C)(=O)=O)cc1,-9.53%
20,COc1cc(S(=O)(=O)N2CCC(c3nc4ccccc4s3)CC2)ccc1S(=O)(=O)N1CC(C)CC(C)C1 (stereo not drawn),12.2%
21,Cc1cc(C(=O)COc2ccccc2C(N)=O)c(C)n1C,4.22%
22,O=c1c2ccccc2nc(-c2cccs2)n1-c1ccc2ccccc2c1,2.34%
23,COc1ccc(CNC(=O)COC(=O)c2cc(-c3ccc(Cl)s3)nc3ccccc23)cc1,1.05%

row,Compound,"hERG current change (%, negative = inhibition) at 10uM"
1,Cc1ccc(Cl)cc1N(CC(=O)NC1CCCC1)C(=O)c1csnn1,18.4%
2,Cc1cc(C)c(S(=O)(=O)c2ccccc2C)c(Cl)n1,-19.9%
3,O=C(Cc1ccccc1)NCc1ccncc1,8.49%
4,CCOC(=O)c1c(NC(=O)C2(C)Cc3ccccc3C(=O)O2)sc2c1CCCC2 (stereo not drawn),38.7%
5,CC1CCN(C(=O)c2cc3c(ccc4ccccc43)o2)CC1,-35.3%
6,O=C(OCC(=O)N1CCCCCC1)c1cccc(Cl)c1,4.77%
7,CC(CCc1ccccc1)NC(=O)c1cccnc1 (stereo not drawn),19.5%
8,CCC(C)NC(=O)c1ccc2c(c1)S(=O)(=O)c1ccccc1C2=O (stereo not drawn),10.1%
9,Cn1cc(CNCc2cnc3ccccn23)c(-c2ccc(Oc3ccccc3)cc2)n1,-50%
10,C=C(C)CSc1nnc(-c2ccc(OC)cc2)n1N,-4.21%
11,CCn1c(=O)cc(SCC(=O)NCc2ccc(C)o2)c2ccccc21,-9.75%
12,CCOC(=O)C1=C(O)C(=O)N(c2ccc(S(N)(=O)=O)cc2)C1c1ccc(OC)cc1OC (stereo not drawn),12%
13,CN(CC(=O)Nc1ccccc1Cl)C(=O)COC(=O)c1cc(S(=O)(=O)N(C)C)ccc1N1CCCC1,-0.895%
14,Cn1c(=O)c(C#N)c(-c2ccccc2)n2cnnc12,-4.47%
15,Cc1c(NC(=O)CN2CCN(C(=O)c3ccco3)CC2)c(=O)n(-c2ccccc2)n1C,-1.76%
16,CCOC(=O)c1ccc(NC(=O)CCn2c(=O)oc3ccccc32)cc1,4.76%
17,O=C(NCC(c1ccco1)N1CCN(c2ccc(F)cc2)CC1)C1CCCCC1 (stereo not drawn),-41.1%
18,Cc1cc(N2C(=O)C(O)=C(C(=O)c3ccco3)C2c2cccc(Cl)c2)no1 (stereo not drawn),3.71%
19,COc1cccc(CNC(=O)CCCNS(=O)(=O)c2cccs2)c1,0.315%
20,COc1ccccc1CC(=O)N(Cc1ccccc1)c1ccc(C)cc1,-16%
21,NC(=O)CC[C@@H]1NC(=O)[C@@H]2CCCN2C(=O)c2cc([N+](=O)[O-])cc(I)c2NCCC[C@@H](C(=O)NC(CC(=O)O)C(N)=O)NC1=O (stereo partly drawn),2.63%
22,COc1cccc(CN(C)CC2CCCN(CCc3ccccc3C)C2)c1 (stereo not drawn),-109%
23,CC(=O)c1ccc(Nc2cc(C)nc3ncnn23)cc1,-4.75%

row,Compound,"hERG current change (%, negative = inhibition) at 10uM"
1,O=C(/C=C/c1cccc(Cl)c1)Nn1c(-c2cccs2)nc2ccccc2c1=O,12%
2,O=C(/C=C/c1ccccc1)NC(=S)Nc1ncccn1,14.8%
3,COc1ccc(CC(=O)NCC2CCCN(Cc3ccc(SC)cc3)C2)cc1 (stereo not drawn),-67.5%
4,COc1ccccc1-c1sc2cc3c(cc2c1C#Cc1ccccn1)OCO3,8.78%
5,CSCc1cc(N2CCOCC2)nc(-c2ccccc2)n1,-5.59%
6,O=C(Cc1cccs1)Nc1nnc(SCc2ccc(C(F)(F)F)cc2)s1,20.6%
7,Cc1ccc(CN2C(=O)CCC2C(=O)NCc2ccco2)cc1 (stereo not drawn),-2.47%
8,c1ccc(-c2cc(-c3nc(-c4ccccn4)no3)c3ccccc3n2)cc1,5.86%
9,CCCC(=O)Oc1cccc(C2NC(=O)c3ccccc3O2)c1 (stereo not drawn),12.6%
10,O=C(Nc1cccc(-c2nn[nH]n2)c1)c1cccs1,15.6%
11,CCOC(=O)c1cnc2c(cnn2C)c1Oc1ccc(OC)cc1,-43%
12,O=C1CC(c2ccccc2)Sc2ccccc2N1 (stereo not drawn),-29%
13,Cc1[nH]nc(N)c1-c1ccccc1,22.8%
14,Cn1c(=O)cc(Nc2ccc(Cl)cc2)[nH]c1=O,18.9%
15,Cc1cc(C)cc(NC(=O)C2CCN(c3nc(C)cc(C)n3)CC2)c1,-3.58%
16,C=C(c1ccccc1)c1ccccc1N,4.12%
17,Cc1cccnc1NC(=O)CCNC(=O)c1ccc(Cl)cc1,18.3%
18,CCOC(=O)c1ccccc1NC(=O)CSc1nc(N)cc(=O)[nH]1,10.1%
19,COc1ccc(NC(=O)CN(C)C(=O)c2c(C)nn(Cc3ccc(C)cc3)c2Cl)cc1,9.81%
20,O=S(=O)(c1cccc(-c2nc3ccccc3s2)c1)N1CCOCC1,-7.39%
21,O=C(NCCn1cccn1)c1ccc(OC2CCN(CCc3ccccc3)CC2)cc1,-41.3%
